Assay results reported in PubChem BioAssay AID1508624 (National Center for Advancing Translational Sciences (NCATS), 2021).
Out of some 48,000 compounds screened, about 120 (0.25%) were called active. Not shown: some 4% with an inconclusive outcome. Calls come from the whole dose curve; as a rule, active = well fitted activation curve with a large enough effect; inconclusive = small, poorly fitted or top-dose-only effect, or another doubt; inactive = no such curve, though single readings can be large or run the other way. The list shows a part of the results.

Test: Primary qHTS for Identification of Small Molecule Activators of Huntingtin-Antisense Promoter Activity; note: nearly all actives have a fitted effect of over 55% in size
Details: HEK293 HTT-AS promoter firefly luciferase reporter, 24 h; series mostly up to 57.5 µM; activity change, positive = activation: at the top concentration
In short: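 HEK293 luciferase promoter-reporter cells (2,500/well) plated 24 h, then compounds added at up to 57.5 uM final for 24 h at 37 °C. Firefly luminescence by Dual-Glo, normalized to vehicle (0%) and zero RLU (-100%).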

Activity change, positive = activation, inactive:
O=C(Nc1ccc(F)c(Cl)c1)c1cc(S(=O)(=O)N2CCCc3ccccc32)ccc1F -18.6%
COc1ccc(S(=O)(=O)N(CC(=O)NCc2ccc(C)cc2)c2ccc(Cl)cc2)cc1 -18.3%
CCOc1ccc(C(=O)N2CCCCC2CCN2CCOCC2)cc1 (stereo not drawn) -8.02%
COc1ccc(NC(=O)c2sc3nc(C)c(C(=O)Nc4ccc(Cl)cc4)c(-c4ccc(Br)cc4)c3c2N)cc1 -33.5%
CCOc1ccc(OCC)c(NC(=O)CCc2c(C)nc3c(c2C)c(=O)n(C)c(=O)n3C)c1 -10.5%
O=C(c1ccc2c(c1)N(Cc1ccccc1)C(=O)c1ccccc1S2(=O)=O)N1CCN(c2ccccn2)CC1 -1.2%
CCSc1ncc(Cl)c(C(=O)Nc2c(C(=O)Nc3ccc(Cl)cc3)oc3ccccc23)n1 0.969%
CCOc1ccccc1CNC(=O)c1cc(-c2ccc(OC)cc2)nc2ccc(C(C)C)cc12 -1.26%
COc1cc(C2c3c(oc4ccccc4c3=O)C(=O)N2c2nnc(C(C)C)s2)cc(OC)c1OC (stereo not drawn) -5.2%
Cc1ccc(Cn2ccn(Cc3ccccc3C)c(=O)c2=O)cc1 -9%
COc1ccc(/C=C/c2noc(-c3ccccc3O)n2)cc1OC 4.1%
COC(=O)c1ccccc1NC(=O)Cn1c(=O)n(-c2ccc(Cl)cc2)c(=O)c2c(C)c(C)sc21 28.7%
CCn1ccc2cc(S(=O)(=O)N3CCC(C(=O)NCCc4ccc(C)cc4)CC3)ccc21 -18.6%
COc1ccc(NC(=O)CSCc2cnn(-c3ccccc3)c2-n2cccc2)cc1 -18.6%
CCC(C)NC(=O)c1ccc2nc(Cc3ccc(OC)cc3)oc2c1 (stereo not drawn) 5.6%
COc1cc(OC)cc(C(=O)NCC(c2cccs2)S(=O)(=O)c2ccc(F)c(C)c2)c1 (stereo not drawn) 5.98%
COc1cc(C(=O)N2CCN(CCc3ccccn3)CC2)cc(OC)c1OC 3.85% [at 11.5 µM, percent change from vehicle, -100% = no light]
COc1ccccc1NC(=O)CN1C(=O)C2(SCC(=O)N2c2ccc(C)c(C)c2)c2ccccc21 (stereo not drawn) -56.4%
Cc1ccc(N(CC(=O)Nc2cc(C)cc(C)c2)S(=O)(=O)c2cccc3nonc23)cc1 -5.74%
CC1=C(c2ccc(C)cc2)S(=O)(=O)N(Cc2ccc(C(=O)Nc3ccc(F)cc3C)cc2)C1=O -39.2%
NS(=O)(=O)c1ccc(NC(=O)c2ccc3c(c2)CCN3S(=O)(=O)c2ccccc2)cc1 -29.8%
COC(=O)C(CCSC)NC(=O)c1c(C)oc2ncn(CC(C)C)c(=O)c12 (stereo not drawn) -0.251%
Cc1ccc(NC(=O)C(=O)NCC(c2cccnc2)N2CCN(C)CC2)cc1F (stereo not drawn) -14.9%
Cc1c(Cl)cccc1NC(=O)CSc1ncccc1C(=O)Oc1ccccc1Cl -9.58%
CCOc1ccc(NC(=O)Cn2ccn(-c3ccc(F)c(F)c3)c(=O)c2=O)cc1 -4.39%
COc1ccc(CNC(=O)c2cccc(-n3cnc4cccnc43)c2C)cc1 -7.83%
COc1cccc(C(=O)Nc2ccc(-c3cn4cccnc4n3)cc2)c1OC 5.72%
CCOCCSc1c(C)cnc2c1c(=O)n(C)c(=O)n2C -31.3%
Cc1ccc(N2C(=O)c3[nH]nc(-c4ccc(Cl)cc4)c3C2c2ccc(F)cc2)cc1 (stereo not drawn) -60.3%
CC(C)CCNC(=O)C1CCC(Cn2c(=O)c3sccc3n(CC(=O)NC(C)C)c2=O)CC1 (stereo not drawn) -13.9%
O=C(Cn1c(=O)n(-c2ccc(F)c(Cl)c2)c(=O)c2sc3ccccc3c21)NC1CCCC1 -0.559%
Cc1ccc(-n2c(=O)c3oc4ccccc4c3n(Cc3ccccc3F)c2=O)cc1C -18.1%
COc1ccc(CNC(=O)c2cc3c(s2)-c2ccccc2OC3)cc1 -15.5%
CCC(C)NC(=O)C(=O)Nc1c2c(nn1-c1ccccc1)CS(=O)(=O)C2 (stereo not drawn) -15.1%
COc1ccc(NC(=O)CSc2nc3c(oc4ccccc43)c(=O)n2-c2ccc(C)c(C)c2)cc1 -16.8%
CCOC(=O)c1c(NC(C)=O)c2c3c(sc2n1Cc1nc(-c2ccccc2C)oc1C)CCCC3 -4.74%
O=C(Nc1nc2ccc(F)cc2s1)c1nc(S(=O)(=O)Cc2ccccc2)ncc1Cl -46.1%
O=C(c1ccc2c(c1)N(Cc1ccc(Cl)cc1)C(=O)c1ccccc1S2(=O)=O)N1CCCCC1 -30.2%
CC1CN(C(=O)CCC(=O)NCc2ccc(F)cc2)c2cc(Cl)ccc2O1 (stereo not drawn) 5.43%
O=C(CN1C(=O)CCSc2ccccc21)Nc1ccccc1F -12.9%
CCOc1ccc(CCNC(=O)C2COc3ccccc3C2)cc1OCC (stereo not drawn) 9.68%
CC(CC(=O)Nc1ccc(Br)cc1F)S(=O)(=O)c1ccc2c(c1)NC(=O)CO2 (stereo not drawn) -14.6%
CC(C)c1ccc(C2N=C(N)Nc3nc4ccccc4n32)cc1 (stereo not drawn) -12.1%
Cc1c(C)n(C)c2ccc(C(=O)N3CCN(c4ccccc4)CC3)cc12 -12.3%
Cc1c(Cl)cccc1NC(=O)C(C)n1nnc2sc3c(c2c1=O)CCCC3 (stereo not drawn) -0.74%
CSc1ncc(Cl)c(C(=O)N(Cc2ccc(N(C)C)cc2)Cc2ccco2)n1 -41.6%
Cc1cc(C)cc(NC(=O)Cn2c(=O)c3ccccc3n3nncc23)c1 -1.71%
CCOC(=O)c1ccccc1NC(=O)c1sc2nc3n(c(=O)c2c1C)CCCC3 -3.28%
CCCCOc1ccc(CNC(=O)CCCN2C(=O)CSc3c2c(C)nn3-c2ccccc2)cc1 -32%
Cc1ccc2c(=O)cc(C(=O)Nc3ccc(S(=O)(=O)N4CCCCCC4)cc3)oc2c1C -7.46%
CCc1ccc(CNC(=O)CN2C(=O)c3cccnc3Oc3ccc(C)cc32)cc1 -13.9%
Cc1ccc(CNC(=O)Cn2cc(C(=O)c3ccc(F)cc3)c(=O)c3ccc(C)nc32)cc1 -15.1%
CCOC(=O)C1CCN(C(=O)C2CCN(C3=NS(=O)(=O)C(c4ccc(C)c(C)c4)=C3C)CC2)CC1 -19.4%
CCc1ccc(Cc2cnc(NC(=O)c3ccc4c(c3)CC(c3ccccc3)OC4=O)s2)cc1 (stereo not drawn) -34.3%
Cc1cccc(C2CC(=O)Oc3c2c(=O)n(C)c2ccccc32)c1 (stereo not drawn) -14.7%
NC(=O)C1(N2CCCCC2)CCN(CCCC(=O)c2ccc(F)cc2)CC1 -9.4%
CCC(=O)Nc1ccc(-c2nnc3c4ccccc4c(C)nn23)cc1 -7.21%
O=C(NCc1ccccc1)c1ccc2c(c1)CCN2S(=O)(=O)c1ccccc1 -15.7%
Cc1ccc(NC(=O)CSc2nc(=O)n(CCCN(C)C)c3c2CCC3)cc1F -7.22%
CCCc1ccc(S(=O)(=O)N2CCC(Oc3ccc(-n4cnnn4)cc3)CC2)cc1 -19%
CCOC(=O)c1[nH]c(C)c(CCC(=O)NCc2ccccc2Cl)c1C -15.5%
CNC(=O)c1ccc(Nc2nnc(-c3ccc(C)c(S(=O)(=O)N(C)C)c3)c3ccccc23)cc1 -23.1%
CNC1(C)C2CCC(C2)C1(C)C (stereo not drawn) -13.3%
Cc1cc(C)cc(OCCCn2c(CCNC(=O)C3CCCCC3)nc3ccccc32)c1 -20.4%
CCCCC(CC)CNC(=O)C1CCC(CNS(=O)(=O)c2cccc3nsnc23)CC1 (stereo not drawn) -21.2%
COc1ccc(CCNC(=O)CCCn2c(=O)c3ccccc3n(Cc3c(C)cc(C)cc3C)c2=O)cc1OC -14%
CCC(=O)N1c2ccc(S(=O)(=O)N3CCC(C)CC3)cc2CC1C (stereo not drawn) -28.8%
CC(C)(O)c1cc2nc(-c3cnc(N)nc3)nc(N3CCOCC3)c2s1 -50.7%
O=C(CC1C(=O)OCCN1Cc1ccccc1)Nc1ccc(F)cc1 (stereo not drawn) -18.1%
Cc1ccc(C)c(NC(=O)Cn2cc(C(=O)c3ccc(Cl)cc3)c(=O)c3ccc(C)nc32)c1 -16.6%
CC1CCN(S(=O)(=O)c2ccc(C(=O)Nc3sc4c(c3C(N)=O)CC(C)(C)NC4(C)C)cc2)CC1 -15.8%
Cc1cccc(C)c1-n1ncc(C(=O)N2CCN(c3ccccn3)CC2)c1C1CCN(C(=O)OC(C)(C)C)CC1 -12.1%
N#Cc1ccc(CSc2nc3c(c(=O)[nH]2)CCC3)cc1 -0.518%
COc1cc(NC(=O)CSc2nc(-c3ccc(C)cc3)nc3c2Cc2ccccc2O3)cc(OC)c1 -22.9%
Cc1ccc(S(=O)(=O)c2nc(-c3cccc(C)c3)oc2N2CCN(c3ccccc3)CC2)cc1 -24.7%
COc1ccc2c(c1)CCc1c(C(=O)Nc3c(C)nn(Cc4ccc(Cl)c(Cl)c4)c3C)noc1-2 -67.3%
CCCSc1ncc(Cl)c(C(=O)Nc2nc3ccc(OCC)cc3s2)n1 -3.03%
Cc1nc2nc(SCC(=O)NCCc3ccc(Cl)cc3)nn2c(C)c1Cc1ccccc1 -8.41%
COC(=O)c1sc2cccc(F)c2c1S(=O)(=O)N1CCN(c2ccc(F)cc2)CC1 -23.8%
Cc1ccc(CNC(=O)c2ccc3c(=O)n(-c4ccccc4)c(=O)[nH]c3c2)cc1 12.1%
S=c1nc[nH]c2nc[nH]c12
COc1cc(OC)c(NC(=O)NCc2ccc3c(c2)CCN3C(=O)c2ccccc2)cc1Cl -9.08%
CCc1ccccc1NC(=O)CSc1nc(-c2ccccc2OC)nc2c1Cc1c(CO)cnc(C)c1O2 -20.8%
COC(=O)C(CCSC)NC(=O)c1cc2c(n(-c3ccc(C)cc3)c1=O)CC(C)(C)CC2=O (stereo not drawn) -16.5%
CC(=O)c1cc(C(=O)Nc2cc(C)cc(C)c2)c2ccccn12 -19.4%
Cc1ccc2c(c1)cc1c(=O)n(CC(=O)NC3CCCCC3)nc(C)n12 -0.436%
CCOC(=O)CC1c2cc(OCC)c(OCC)cc2CCN1C(=O)Nc1cccc(Cl)c1 (stereo not drawn) -16.5%
Cc1cccn2c(=O)c3cc(C(=O)NCc4ccccc4)c(=N)n(CCOCCO)c3nc12 -12.9%
COc1cccc(CNC(=O)C2CCN(S(=O)(=O)c3cn(C)cn3)CC2)c1 -6.27%
CC(=O)N1c2ccc(S(=O)(=O)N3CCCCCC3)cc2CC1C(=O)NCc1ccc(Cl)cc1 (stereo not drawn) 0.634%
O=C(Cn1cc(SCc2ccc(C(F)(F)F)cc2)c2ccccc21)N1CCCC1 -0.311%
CCCOc1ccc(-c2nonc2NC(=O)c2oc3ccc(C)cc3c2C)cc1OCCC -4.79%
CCOC(=O)N1CCC(NC(=O)c2cnn(-c3cccc(Cl)c3C)c2C2CCN(C(=O)OC(C)(C)C)CC2)CC1 -0.344%
